{"source": "the supplement of paper PMC11417369", "note": "Some of the results follow.", "data": [{"tested_on": "PfHDP1 homeodomain (GST-tagged)", "assay": "gcPBM binding intensity (ln(normalized median fluorescence intensity)); higher = stronger DNA binding", "procedure,_shortened": "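DNA-binding domains from P. falciparum, fused to GST and produced in E. coli, were put on an Agilent 4 × 180k double-stranded probe array for 1 h in 1× PBS holding 1% milk, 0.2 mg/ml BSA, 0.5% salmon testes DNA and 0.03% Triton X-100. Probes were primer-extended, 36 bp long and drawn from intergenic genomic regions, with negative controls included. After Alexa488 anti-GST antibody detection and a 488 nm scan, binding intensity was set as the highest Masliner-normalised natural-log median intensity across replicate spots of either probe orientation.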", "values": [{"sequence": "TAAGTACGACTTGACACACATACACATATATATATA [CACACA_site1286]", "gcPBM binding intensity (ln)": 9.06}, {"sequence": "CAAATACACCAACACACACACACAAAAAAAAAAAAA [CACACA_site514]", "gcPBM binding intensity (ln)": 6.8}, {"sequence": "AAAAAATAAAAAATATGTACACATTCAAAATTTTAC [XGTACX_site8479]", "gcPBM binding intensity (ln)": 6.52}, {"sequence": "TGTGCTTATCCTAACACACACAACATATAAGAAAAA [CACACA_site3319]", "gcPBM binding intensity (ln)": 6.99}, {"sequence": "TATACATATTTATACACACACACATATATTTATATA [CACACA_site6727]", "gcPBM binding intensity (ln)": 7.04}, {"sequence": "ATATATATATATATATGTACATATTACATTACTTAT [XGTACX_site749]", "gcPBM binding intensity (ln)": 9.33}, {"sequence": "AAAAAGAAAAAAAACACACACAAATATAAATAAATA [CACACA_site1183]", "gcPBM binding intensity (ln)": 6.67}, {"sequence": "TTTTTTGCTAAGTGTACACAAATGTTTATTAATTTA [CACACA_site5859]", "gcPBM binding intensity (ln)": 7.27}, {"sequence": "TCTTTGGTAATATATATGTATAAATATAAATATATA [CACACA_negctrl_site1566]", "gcPBM binding intensity (ln)": 6.15}, {"sequence": "ATATATATATATGTTAGTACATAACAAGTGTGCATA [XGTACX_site1527]", "gcPBM binding intensity (ln)": 9.87}, {"sequence": "ATAAAACAAGCAAATCGTACAAAAGGATAATATATA [XGTACX_site5592]", "gcPBM binding intensity (ln)": 6.84}, {"sequence": "TTAGGTAGAAAAAAGACACACACATTATATATATAT [CACACA_site8016]", "gcPBM binding intensity (ln)": 8.65}, {"sequence": "ATATATATTTAAGAGGGTACAAAAATTTATGAGCAT [XGTACX_site6156]", "gcPBM binding intensity (ln)": 7.09}, {"sequence": "ATGTATGGTTTATATGTTCATTTGTTCACCTATTTA [CACACA_negctrl_site1533]", "gcPBM binding intensity (ln)": 6.88}, {"sequence": "AAAAAAAAAAAAAACACACACACACCCATACCCATA [CACACA_site5577]", "gcPBM binding intensity (ln)": 6.85}, {"sequence": "ATCATTCATTTAACAACACACAACATATTTATCATA [CACACA_site1041]", "gcPBM binding intensity (ln)": 6.72}, {"sequence": "AAATAGTTCATAAAAAGTACAAAATTTTTATCCGTA [XGTACX_site2796]", "gcPBM binding intensity (ln)": 6.13}, {"sequence": "TATAAAGGTTGGTACTGTACAATATAAGAAAAAAAA [XGTACX_site435]", "gcPBM binding intensity (ln)": 6.86}, {"sequence": "TATATATTATATAAGAGTACATATAATTATAGTTTT [XGTACX_site5039]", "gcPBM binding intensity (ln)": 6.23}, {"sequence": "GTATATATTTCCAGAAGTACTTATTTTTATGTATGT [XGTACX_site4079]", "gcPBM binding intensity (ln)": 6.66}, {"sequence": "TTTATTTTGACAGATTGTACACTTTATACATGTTTT [XGTACX_site2356]", "gcPBM binding intensity (ln)": 6.8}, {"sequence": "AATCTATATTAATACACACACACATATATTTATATA [CACACA_site7732]", "gcPBM binding intensity (ln)": 6.93}, {"sequence": "TGAAAAAAGAAAAATACACACATATAACATAATATA [CACACA_site7126]", "gcPBM binding intensity (ln)": 6.67}, {"sequence": "AAAAATGCCAGAAAACGTACTCGGATTTTCTAATAT [XGTACX_site6552]", "gcPBM binding intensity (ln)": 6.02}, {"sequence": "TGATTACATATGATGTGTACCTAATTTTGTTTACAC [XGTACX_site7032]", "gcPBM binding intensity (ln)": 6.33}, {"sequence": "TTTTAATATTTTGCCTGTACATAAAAGTGAGAAGAT [XGTACX_site2503]", "gcPBM binding intensity (ln)": 7}, {"sequence": "AAAACACGCGGACACACACACACACCCACCCATATA [CACACA_site8688]", "gcPBM binding intensity (ln)": 6.58}, {"sequence": "TTATATTTATTGATATGTACATATTATAATTAATTA [XGTACX_site586]", "gcPBM binding intensity (ln)": 6.62}, {"sequence": "TTACACATATTTTTAATTATTCTGAATTCAAAAAAA [CACACA_negctrl_site1706]", "gcPBM binding intensity (ln)": 6.18}, {"sequence": "GTAATATTAAAATATACACACATAGAATATATATAT [CACACA_site4391]", "gcPBM binding intensity (ln)": 8.2}, {"sequence": "ATAATCATAAAATAAACACACATATATAAATATATT [CACACA_site276]", "gcPBM binding intensity (ln)": 6.37}, {"sequence": "GTGTGGAGTTACAAAGAGGAGAACCTCACAGTAATC [CACACA_negctrl_site527]", "gcPBM binding intensity (ln)": 6.48}, {"sequence": "TTACTCTTTATATAATGTACATATATATATATATTA [XGTACX_site2624]", "gcPBM binding intensity (ln)": 6.74}, {"sequence": "AAATTCGTTATAAAAACATGCAACGATCAACATTGT [TGCATGCA_site844]", "gcPBM binding intensity (ln)": 6.4}, {"sequence": "TTTTTTATATTGTGATGTACAAATTTTAAAATGTAG [XGTACX_site1875]", "gcPBM binding intensity (ln)": 6.3}, {"sequence": "ATATATATATATATAATACACACTTATGAAATGTCT [CACACA_site1827]", "gcPBM binding intensity (ln)": 9.11}, {"sequence": "ATATAATGGCTAAATAGTACAATATAATATTTTTTA [XGTACX_site8922]", "gcPBM binding intensity (ln)": 6.14}, {"sequence": "ACACATGAATATTGTAGTACGGCAATTAATATAATA [XGTACX_site4589]", "gcPBM binding intensity (ln)": 6.48}, {"sequence": "TGGAATAATACGCGTACACACATATAAATATTAATA [CACACA_site6211]", "gcPBM binding intensity (ln)": 6.71}, {"sequence": "AGAAAGGAAAAAACCTCACACATGCTTTTAATAGTA [CACACA_site4602]", "gcPBM binding intensity (ln)": 6.04}, {"sequence": "CTATTCTATTTTTATTGTACATATATATAATTTGAA [XGTACX_site389]", "gcPBM binding intensity (ln)": 6.91}, {"sequence": "AAAAAAATATAAATACGTACATATATATATATATAT [XGTACX_site432]", "gcPBM binding intensity (ln)": 9.34}, {"sequence": "AAAAATTCATTTTTATGTACGTACAAATTCTTCGTT [XGTACX_site2471]", "gcPBM binding intensity (ln)": 6.32}, {"sequence": "AGTAAATTATATATCTGTACATATATATATGTGTAT [XGTACX_site5519]", "gcPBM binding intensity (ln)": 6.67}, {"sequence": "TTTTAAAAAAATATAATACACACCAAAAATATGCAC [CACACA_site2131]", "gcPBM binding intensity (ln)": 7.15}]}]}
